Data published in the supplement of paper PMC9446081.
Among all 39,000 compounds or so, about 220 (0.56%) showed activity. This is one part of the list.

tested on: Escherichia coli K-12 BW25113; assay: relative growth (OD600 normalised to plate interquartile mean) (fraction); higher = less growth inhibition, active = 0.2 or less; settings: 50 µM; LB; incubation time: overnight (16-24 h)
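Further: static incubation at 37 °C against the wild-type strain, values averaged over two biological replicates.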

Compound | relative growth
Cc1nnn(C23C[C@@H]4C[C@@H](CC(NC(=O)[C@H](N)CC(C)C)(C4)C2)C3)n1 | inactive: 1
C[C@@H]1CN([C@H](C)CO)C(=O)c2cc(NS(=O)(=O)c3cn(C)cn3)ccc2O[C@@H]1CN(C)C(=O)Nc1ccccc1 | inactive: 0.976
C[C@@H]1CN([C@H](C)CO)C(=O)c2cc(NS(C)(=O)=O)ccc2O[C@H]1CN(C)Cc1ccc(C(=O)Nc2ccccc2N)cc1 | inactive: 1.02
C=CCN1C(=O)[C@]2(O[C@@H](CCOC(=O)NCCCCCC(=O)NO)[C@H]([Si](C)(C)c3ccc(OC)cc3)[C@H]2C)c2cc(I)ccc21 | inactive: 1.03
CCCn1nc(C)c(CN)c1C | inactive: 1.02
Cc1noc(C)c1S(=O)(=O)Nc1ccc2c(c1)C(=O)N([C@@H](C)CO)C[C@H](C)[C@@H](CN(C)C)OCCCC[C@H](C)O2 | inactive: 0.983
C[C@@H]1CN([C@@H](C)CO)C(=O)CCCn2nncc2CO[C@@H]1CN(C)C(=O)c1ccc(N2CCN(C)CC2)cc1 | inactive: 0.987
Cc1cn2c(nc1=O)O[C@@H]1C[C@H]2O[C@@H]1CO | inactive: 1
C[C@H](CO)N1C[C@H](C)[C@@H](CN(C)C(=O)Nc2ccc3c(c2)OCO3)Oc2ccc(NC(=O)Nc3ccc(C(F)(F)F)cc3)cc2CC1=O | inactive: 0.976
C[C@@H]1CN([C@@H](C)CO)C(=O)Cc2cc(NC(=O)CCC(F)(F)F)ccc2O[C@@H]1CN(C)C(=O)Nc1ccc(C(F)(F)F)cc1 | inactive: 0.995
CC(C)C1CCC(C(=O)NC(Cc2ccccc2)C(=O)O)CC1 (stereo not given) | inactive: 1.18
CO[C@@H]1CN(C)C(=O)c2cc(NC(=O)c3ccc(F)cc3)ccc2OC[C@H](C)N(C(=O)CN(C)C)C[C@H]1C | inactive: 0.998
Nc1ccc(S(=O)(=O)Nc2ncccn2)cc1 | inactive: 1.09
C[C@H](CO)N1C[C@H](C)[C@H](CN(C)Cc2ccc(C(F)(F)F)cc2)Oc2ccc(NC(=O)NC3CCCCC3)cc2C1=O | inactive: 0.925
C[C@@H]1CN([C@@H](C)CO)S(=O)(=O)c2ccc(Br)cc2O[C@@H]1CN(C)S(=O)(=O)c1ccccc1 | inactive: 1.01
COc1ccc(NC(=O)N(C)C[C@@H]2Oc3c(NC(=O)c4cc(C)nn4C)cccc3C(=O)N([C@H](C)CO)C[C@@H]2C)cc1 | inactive: 0.996
CC(C)NC(=O)N(C)C[C@@H]1Oc2ccc(NS(=O)(=O)c3ccc(Cl)cc3)cc2CC(=O)N([C@@H](C)CO)C[C@@H]1C | inactive: 0.995
C[C@H](O)C#Cc1ccc2c(c1)O[C@H](CN(C)C(=O)Nc1ccccc1)[C@H](C)CN([C@@H](C)CO)S2(=O)=O | inactive: 0.992
O=C(CN1CCOCC1)NCC[C@H]1CC[C@H](NS(=O)(=O)c2ccc(F)cc2)[C@@H](CO)O1 | inactive: 0.984
C[C@H]1CN([C@@H](C)CO)S(=O)(=O)c2ccc(-c3cccc(C#N)c3)cc2O[C@H]1CN(C)C(=O)c1cccnc1 | inactive: 1.01

Compound | relative growth
C[C@H](CO)N1C[C@H](C)[C@@H](CN(C)Cc2ccc(-c3ccccc3)cc2)Oc2ccc(NC(=O)Cc3ccccc3)cc2CC1=O | inactive: 1.02
C[C@@H]1CCCCO[C@H](CN(C)CC2CC2)[C@@H](C)CN([C@H](C)CO)C(=O)c2cc(NC(=O)Nc3ccc4c(c3)OCO4)ccc2O1 | inactive: 0.989
CCNC(=O)C=Cc1cccc(Br)c1 | inactive: 0.88
C[C@@H]1CN([C@H](C)CO)C(=O)Cc2cc(NC(=O)Nc3ccccc3)ccc2O[C@@H]1CN(C)Cc1ccc(C(=O)Nc2ccccc2N)cc1 | inactive: 0.971
C[C@H](CO)N1C[C@H](C)[C@H](CN(C)S(=O)(=O)c2ccc(Cl)cc2)Oc2ccc(NC(=O)Nc3ccc(C(F)(F)F)cc3)cc2CC1=O | inactive: 0.984
C[C@@H]1CCCCO[C@H](CN(C)C(=O)Nc2ccc(C(F)(F)F)cc2)[C@H](C)CN([C@@H](C)CO)C(=O)c2cc(NC(=O)c3ccncc3)ccc2O1 | inactive: 1
COc1ccc(NC(=O)N(C)C[C@@H]2Oc3c(NC(=O)C4CC4)cccc3C(=O)N([C@@H](C)CO)C[C@@H]2C)cc1 | inactive: 0.984
NC(=O)NCC#Cc1ccc2c(c1)[C@]1(C(=O)N2)[C@H](c2ccccc2OCCO)N2[C@H](c3ccccc3)[C@H](c3ccccc3)OC(=O)[C@H]2[C@@H]1C(=O)Nc1nc2ccccc2s1 | inactive: 1.01
C[C@H]1OC(=O)c2c(O)ccc(O)c2[C@H]1O | inactive: 1.01
O=C(O)c1cc(F)c2nc(N3[C@@H]4CC[C@H]3C[C@@H](OCc3c(-c5ccccc5OC(F)(F)F)noc3C3CC3)C4)sc2c1 | inactive: 0.852
C[C@@H]1CN([C@H](C)CO)C(=O)c2cccc(NS(=O)(=O)c3cn(C)cn3)c2O[C@@H]1CN(C)Cc1ccncc1 | inactive: 0.958
Cc1ccc(S(=O)(=O)NCCC(=O)O)cc1 | inactive: 0.926
CN(C)CCN1C[C@@H]2CN(C(=O)[C@H]3CCOC3)C[C@H]2C1=O | inactive: 1
C[C@H]1CCCCO[C@@H](CN(C)C(=O)C2CCCCC2)[C@@H](C)CN([C@@H](C)CO)C(=O)c2cc(NC(=O)NC3CCCCC3)ccc2O1 | inactive: 1.04
COc1ccc2c3c(n(c2c1)C)[C@@H](CO)N(C[C@]13CCN(CC1)C(=O)c1ccccc1F)C(=O)Nc1ccccc1F | inactive: 1.04
CC(=O)O[C@H]1[C@H](Oc2cc(O)cc(O)c2C(=O)c2cccc(O)c2)O[C@H](CO)[C@@H](OC(=O)c2ccccc2)[C@@H]1O | inactive: 0.996
O=C(CCC1=NS(=O)(=O)c2cc(Br)cnc2N1)N1CCOCC1 | inactive: 0.998
Cc1ccc(S(=O)(=O)Nc2ccc3c(c2)CC(=O)N([C@H](C)CO)C[C@@H](C)[C@H](CN(C)Cc2ccc(C(F)(F)F)cc2)O3)cc1 | inactive: 0.993
C[C@@H]1CN([C@H](C)CO)S(=O)(=O)c2ccc(C#Cc3ccccc3F)cc2O[C@@H]1CN(C)CC1CCOCC1 | inactive: 1
C[C@@H]1CN([C@@H](C)CO)C(=O)c2cccc(NS(C)(=O)=O)c2O[C@H]1CN(C)C(=O)Nc1ccccc1 | inactive: 0.996
